Data published in PubChem BioAssay AID720542 (National Center for Advancing Translational Sciences (NCATS), 2013).
The campaign covered roughly 360,000 compounds. About 740 (0.21%) were called active. This list was built around the results that the source calls inconclusive (neither active nor inactive); the mix of calls is not that of the screen. Calls come from the whole dose curve; as a rule, active = well fitted inhibition curve with a large enough effect; inconclusive = small, poorly fitted or top-dose-only effect; inactive = no such curve, though single readings can be large or run the other way. Potencies of inconclusive entries are left out as doubtful fits.
Note: nearly all actives have a fitted effect of over 45% in size.
Potency is the fitted concentration of half-maximal effect; tags give direction and shape of the fitted curve.
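Throughout, for activity change, negative = inhibition: 0% = vehicle wells and -100% = peptide control.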

The compounds below were run on Plasmodium falciparum AMA1 (3D7) - RON2 peptide interaction (assay: qHTS for Inhibitors of AMA1-RON; Towards Development of Antimalarial Drug Lead: Primary Screen). Conditions: AlphaScreen AMA1-biotinylated RON2 peptide binding; activity change, negative = inhibition: at 58.2 µM (top of the series) unless noted.
Summary of the method: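 AMA1 (3D7) with his tag at 25 nM final met compounds first, then biotinylated RON2 peptide at 25 nM; detection used donor plus acceptor beads, 10 µg/mL apiece, read by AlphaScreen after 30 min at room temperature.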
With `COC(=O)CNc1nc(Cl)nc(NC2CCCCC2)n1` the Potency was “inactive”. For `CN1CCN(c2ccc(NC(=O)c3cccc(OCc4ccccc4)c3)cc2)CC1`, the Potency was inconclusive [inhibitor, partial curve]. For `COC(=O)C1=C(c2ccccc2OCc2ccccc2)C[C@@H]2CC[C@H]1N2C(=O)NCc1ccccc1`, the Potency was “inactive”. For `CCOC(=O)c1c(-c2ccccc2)csc1NC(=O)CCN1CCOCC1`, the Potency was inconclusive [inhibitor, partial curve]. With `CN1CCN(c2ccc(NC(=O)c3ccc(-c4ccccc4F)o3)cc2)CC1` the Potency was inconclusive [inhibitor, single point]. In the case of `O=C(O/N=C\c1ccc(N2CCCCC2)c([N+](=O)[O-])c1)c1cccc(C(F)(F)F)c1`, the Potency is reported as inconclusive [inhibitor, partial curve]. For `COc1ccc(N=Nc2cc(C)ccc2O)cc1`, the Potency was inconclusive [inhibitor, single point]. In the case of `COc1ccc(-c2cccc(N3CCN(c4ccccn4)CC3)n2)cc1OC`, the Potency is reported as inconclusive [inhibitor, partial curve]. For `c1ccc(-c2nn[nH]n2)nc1`, the Potency was inconclusive [inhibitor, single point]. `CCN(CC)S(=O)(=O)c1ccc(C(=O)NCC2(N3CCOCC3)CCCCC2)cc1` was tested, and the Potency was inconclusive [inhibitor, single point]. In the case of `COc1ccc(NCc2nn(CC(=O)c3ccc(Br)cc3)c3[n+]2CCCCC3)cc1`, the Potency is reported as inconclusive [inhibitor, partial curve]. For `CC1(C)Cc2ccccc2C(CSc2ccccc2C(=O)O)=N1`, the Potency was inconclusive [inhibitor, partial curve]. `COc1ccc(/C=C2/C(=O)N(c3nc4ccccc4s3)N=C2CSc2ccc(Cl)cc2)cc1` was tested, and the activity change, negative = inhibition was inactive: 76.8% [at 11.6 µM]. `CCC(/C=C1\Sc2ccc(OC)cc2N1CC)=C\c1sc2ccc(OC)cc2[n+]1CCCS(=O)(=O)[O-]` was tested, and the Potency was inconclusive [inhibitor, single point]. For `O=C(NCCCCc1ccccc1)C12CN(Cc3ccccc3)CC1C(c1cccc([N+](=O)[O-])c1)=NO2` (stereo not drawn), the Potency was inconclusive [inhibitor, full curve, poor fit]. For `O=c1cc(-c2ccccc2)n(S(=O)(=O)c2ccc3ccccc3c2)o1`, the Potency was inconclusive [inhibitor, partial curve]. For `Cc1cc(C)n(CC(O)COc2ccccc2C(=O)Nc2ccccc2)n1` (stereo not drawn), the Potency was inconclusive [inhibitor, full curve, poor fit]. With `CC(=O)c1c(C)[nH]c(C(=O)Nc2ccc(N3CCCCCC3)cc2)c1C` the Potency was inconclusive [inhibitor, single point]. For `CCOc1cc(N2CCOCC2)c(OCC)cc1NC(=O)CN1CCc2ccccc2C1`, the Potency was inconclusive [inhibitor, single point]. `Cc1ccc2nc(-c3ccccn3)c(Nc3ccccc3C)n2c1` was tested, and the Potency was “inactive”. `COc1ccc(S(=O)(=O)N2CCOCC2)cc1C(=O)Nc1ccc(N2CCCCCC2)cc1` was tested, and the Potency was inconclusive [inhibitor, partial curve]. `COc1ccc(CN2CCN(C(c3ccc(F)cc3)c3ccc(F)cc3)CC2)c(OC)c1OC` was tested, and the Potency was inconclusive [inhibitor, partial curve]. In the case of `Oc1cc2c(cc1C(c1ccc(Br)cc1)N1CCCC1)OCO2` (stereo not drawn), the Potency is reported as inconclusive [inhibitor, partial curve]. For `COCCNC(=O)C1CCCN(C(=O)COCc2ccccc2)CC1` (stereo not drawn), the Potency was “inactive”. With `Oc1c(CN2CCOCC2)cc(COCc2ccccc2)c2cccnc12` the Potency was inconclusive [inhibitor, single point]. For `CCn1c(COc2ccccc2C)nc2ccccc21`, the Potency was “inactive”. `CC1=CC(C)(C)n2c(O)c(N=N)c3c(C)ccc1c32` was tested, and the Potency was inconclusive [inhibitor, partial curve]. For `COc1ccccc1C(C)Nc1ccc(S(=O)(=O)N2CCN(C)CC2)cc1[N+](=O)[O-]` (stereo not drawn), the Potency was inconclusive [inhibitor, single point]. For `Nc1nc(N)c2c(ccc3c2ccn3Cc2cccc([N+](=O)[O-])c2)n1`, the Potency was active: 31.6 µM. With `COc1cc(CNCCc2c[nH]c3ccccc23)ccc1OCc1ccccc1F` the Potency was inconclusive [inhibitor, partial curve]. `CCN1CCN(Cc2ccc(NC(=O)c3ccc(C)c(NC(=O)c4c[nH]c5cc(C(F)(F)F)ccc5c4=O)c3)cc2C(F)(F)F)CC1` was tested, and the Potency was inconclusive [inhibitor, single point]. For `CCN(Cc1ccncc1)Cc1ccc(Br)cc1`, the Potency was inconclusive [inhibitor, single point]. In the case of `c1ccc(CN2CCC(Nc3nc(-c4cccnc4)nc4ccccc34)CC2)cc1`, the Potency is reported as inconclusive [inhibitor, partial curve, poor fit]. `Cc1ccccc1/C=C/C(=O)c1ccc([N+](=O)[O-])o1` was tested, and the Potency was inconclusive [inhibitor, partial curve]. In the case of `CSc1ccccc1NC(=O)CN(C)Cc1ccc(Br)cc1`, the Potency is reported as “inactive”. In the case of `COc1ccc(NC(=O)CN2CCC(n3c(C)nc4cc(F)ccc43)CC2)c(OC)c1`, the Potency is reported as “inactive”. `CS(=O)(=O)N1N=C(c2cccs2)CC1c1ccccc1F` (stereo not drawn) was tested, and the Potency was “inactive”. With `Cc1onc(-c2c(Cl)cccc2Cl)c1C(=O)N1CCOCC1` the Potency was “inactive”. In the case of `O=[N+]([O-])c1ccc(/C([O-])=C(/C(=S)Nc2ccccc2F)[n+]2ccccc2)cc1`, the Potency is reported as “inactive”. With `CCOC(=O)c1ccc(-c2ccc(N3C(c4cccc(OC)c4)=Cc4ccc(F)cc4C3CC(C)=O)cc2)cc1F` (stereo not drawn) the Potency was “inactive”. For `O=C(NCCO)c1ccc2nc(-c3ccco3)c(-c3ccco3)nc2c1`, the Potency was inconclusive [inhibitor, partial curve]. In the case of `COc1cccc(CN2CCN(Cc3cc(OC)c(OC)cc3[N+](=O)[O-])CC2)c1`, the Potency is reported as inconclusive [inhibitor, single point]. With `Cc1cccn2cc(COc3ccc(-c4ccccc4)cc3)nc12` the Potency was inconclusive [inhibitor, partial curve]. With `O=C(NCc1cccs1)C1CCC(=O)N(Cc2cccc(C(F)(F)F)c2)C1` (stereo not drawn) the Potency was “inactive”. `COc1ccc(Nc2oc(COc3ccc(Cl)cc3)nc2C#N)cc1` was tested, and the Potency was “inactive”. With `O=[N+]([O-])c1ccc2c(c1Nc1ccccc1)=NC1(CCCCC1)N=2` the Potency was inconclusive [inhibitor, full curve, poor fit]. With `COc1cc(/C=C2/CCc3ccccc3C2=O)cc(OC)c1OC` the Potency was inconclusive [inhibitor, full curve, poor fit]. For `COc1cc(C)ccc1OCCCCN1CC(C)OC(C)C1` (stereo not drawn), the Potency was inconclusive [inhibitor, partial curve]. With `O=C(CN1CCN(C/C=C/c2ccccc2)CC1)Nc1ccccc1C(=O)NC1CC1` the Potency was inconclusive [inhibitor, single point]. In the case of `CCOC(=O)C1Sc2[nH]c(=O)sc2C(c2ccc(Cl)cc2)C1C(=O)OCC` (stereo not drawn), the Potency is reported as inconclusive [inhibitor, single point]. For `COc1cc(CN2CCc3ccccc3C2)cc([N+](=O)[O-])c1O`, the Potency was inconclusive [inhibitor, single point]. With `CC(C)CNC(=O)COC(=O)c1cncc(Br)c1` the Potency was inconclusive [inhibitor, single point]. `Cc1ccc(NC(=O)C2CCN(S(=O)(=O)c3ccc4c(c3)NC(=O)C(C)S4)CC2)c(C)c1` (stereo not drawn) was tested, and the Potency was “inactive”. `COC(=O)C1=C(c2cccc(OCc3ccccc3)c2)C[C@@H]2CC[C@H]1N2C(=O)NCc1ccc(OC)c(OC)c1` was tested, and the Potency was “inactive”. `CCOC(=O)C1=C(C)N(c2ccc(C)cc2)C(=O)/C1=C\c1ccc(O)c(OC)c1` was tested, and the Potency was inconclusive [inhibitor, partial curve]. For `COc1cc2c(cc1OC)CN(C(=O)c1cc(C3CC3)nn1-c1ccccc1)CC2`, the Potency was “inactive”. For `CCc1ccc(C(=O)NCc2ccc(Cl)cc2)cc1`, the Potency was “inactive”. `CCOC(OCC)c1cc2ccccc2cn1` was tested, and the Potency was “inactive”. With `Nc1ccc(N2CCN(c3ccc(Cl)c(Cl)c3)CC2)cc1` the Potency was inconclusive [inhibitor, partial curve]. For `CC1=N/C(=C/c2cccnc2)C(=O)O1`, the Potency was “inactive”. With `COC(=O)c1ccc(NC(=O)CN2CCN(CC#N)CC2)cc1` the Potency was inconclusive [inhibitor, single point]. With `O=C(NCc1nnnn1-c1ccc(F)c(F)c1)C(=O)c1c[nH]c2ccccc12` the Potency was “inactive”. In the case of `COc1cccc(Oc2ccc(N/C=C/C(=O)C(C)(C)C)cc2)c1`, the Potency is reported as “inactive”. With `CC1=NN(c2ccccc2)C(=O)/C1=C/c1cccs1` the Potency was inconclusive [inhibitor, partial curve]. In the case of `COc1ccc(C(CNC(=O)c2cccc(S(=O)(=O)Nc3ccc(C)cc3)c2)N2CCOCC2)cc1` (stereo not drawn), the activity change, negative = inhibition is reported as inconclusive: -2.21% [inhibitor]. For `COc1cc(/C=C2\SC(=S)N(NC(=O)c3ccccc3OC)C2=O)ccc1O`, the Potency was inconclusive [inhibitor, single point]. In the case of `CCOc1ccccc1NC(=O)N1CCCC1C(=O)Nc1ccc(NC(C)=O)cc1` (stereo not drawn), the Potency is reported as inconclusive [inhibitor, partial curve]. `Cc1ccc(NC(=O)CN2CCC(Cc3ccccc3)CC2)cc1S(=O)(=O)N(C)C` was tested, and the Potency was inconclusive [inhibitor, partial curve].
